This note sets out measurements from PubChem BioAssay AID1346428 (National Center for Advancing Translational Sciences (NCATS), 2018).

Where “and” joins values, the source holds several entries; their conditions need not be identical. Equal entries are not always repeated. Screen size: about 48,000 compounds; about 1,200 (2.5%) were called active. Roughly 2% stayed inconclusive and do not appear here.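 The calls were made as follows: active = activation of at least 60% and not above a set upper limit (about 1 call in 100 departs from these limits); inconclusive = activation of 40% to 60%, or above that upper limit; inactive = activation under 40%.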 Some of the results follow.

For the assay, the target named is Probable G-protein coupled receptor 32 (Homo sapiens) (UniProt O75388). In words: qHTS for Agonists of Human Resolvin D1 Receptor DRV1. Also: 0% is about no effect. Conditions: CHO-K1 GPR32 beta-arrestin PathHunter luminescence, 90 min; at 76.9 µM; stronger effect = higher value; zero percent set by DMSO-only wells. The essentials: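 CHO-K1 cells stably expressing ProLink-tagged GPR32 and Enzyme Activator-tagged beta-arrestin were seeded at 2,500 cells/well overnight, exposed to compounds for 90 min at 37 °C, then read by beta-Gal complementation chemiluminescence after 1 h detection reagent.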
Chain of UniProt O75388 (O75388 whole entry, looked up): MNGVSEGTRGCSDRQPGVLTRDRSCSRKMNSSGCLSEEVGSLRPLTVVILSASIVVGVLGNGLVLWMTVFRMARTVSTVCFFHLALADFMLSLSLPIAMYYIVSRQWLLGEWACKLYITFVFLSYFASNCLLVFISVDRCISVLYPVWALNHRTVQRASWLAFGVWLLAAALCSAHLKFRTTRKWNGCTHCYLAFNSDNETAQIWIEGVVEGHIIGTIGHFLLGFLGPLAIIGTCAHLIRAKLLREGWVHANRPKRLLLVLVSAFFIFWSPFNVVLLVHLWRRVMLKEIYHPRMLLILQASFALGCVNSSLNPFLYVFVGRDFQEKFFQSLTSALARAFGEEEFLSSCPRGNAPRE
Background: Quantitative high-throughput screening tests each substance at several concentrations.
In the case of `Cc1ccc(Cn2c(C(C)NC(=O)c3ccccc3)nc3ccccc32)cc1` (stereo not drawn), the activation is inactive: -14.9%. `O=C(NCCCN1CCN(c2ccccc2)CC1)c1ccc2nc(Cc3ccccc3)oc2c1`: the activation is inactive: -21.1%. In the case of `Cc1noc(C)c1S(=O)(=O)N1CCC(C(=O)N2CCN(c3cccc(C(F)(F)F)c3)CC2)CC1` it was inactive: 15.6%; in that of `CC(C)NC(=O)CCC(=O)N1Cc2ccccc2Oc2ncccc21`, inactive: -10.1%; in that of `CCOC(=O)c1c(C)[nH]c(CCC(=O)Nc2ccc(OC)c(OC)c2)c1C`, inactive: 6.68%.

Regarding `CCC1CCCCN1C(=O)CSc1nc2c([nH]c3ccccc32)c(=O)n1-c1ccc(OC)cc1` (stereo not drawn), the activation is inactive: -11%. The figure for `Cn1ccc2cc(S(=O)(=O)N3CCN(C(=O)Nc4ccc(F)cc4F)CC3)ccc21` is inactive: -4.04%; for `Cc1ccc(-n2nc3c(=O)n(C(C)C(=O)NCc4ccco4)nc(C)c3c2C)cc1` (stereo not drawn) it is inactive: -10.3%. On to `Cc1ccc(Cl)cc1N1CCN(CCCNC(=O)c2ccc3nc(N4CCCCC4)sc3c2)CC1`, for which the activation was inactive: -7.97%. In the case of `NS(=O)(=O)c1cc2c(cc1C(F)(F)F)NC(Cc1ccccc1)NS2(=O)=O` (stereo not drawn) it was inactive: -1.38%; in that of `CCn1ccc2c(OCC(=O)Nc3ccccc3C(F)(F)F)cccc2c1=O`, active: 84.9%; in that of `Oc1c(C(c2ccccc2)N2CCC(O)CC2)sc2nc(-c3ccco3)nn12` (stereo not drawn), inactive: -12.2%. The figure for `COC(=O)CC1Oc2ccc(Cl)cc2-n2cc(-c3ccccc3)nc21` (stereo not drawn) is inactive: 15.3%; for `CCOc1ccc(CCNC(=O)c2cnc3sc(N4CCCC4)nn3c2=O)cc1` it is inactive: 10.2%; for `CCCCOc1cccc(C(=O)N(Cc2ccc(C)o2)c2ccccn2)c1` it is inactive: 25.7%. In the case of `COc1ccc(NS(=O)(=O)c2ccc3[nH]c4c(c3c2)CCCC4)cc1OC`, the activation was inactive: 13.7%. Regarding `CCn1c(CN2CCCCC2)nc2cc(NC(=O)c3cc(OC)c(OC)c(OC)c3)ccc21`, the activation was inactive: -8.85%. In the case of `CC(=O)Nc1ccc(NC(=O)c2ccc3c(c2)N(Cc2cccc(Cl)c2)C(=O)c2ccccc2S3(=O)=O)cc1` it was inactive: -22.4%. In the case of `CCOC(=O)C(C)Sc1ccc2nnc(CCNS(=O)(=O)c3ccccc3)n2n1` (stereo not drawn) it was inactive: -7.68%; in that of `Cc1ccc(C)c(NC(=O)c2ccc(CN3CC(=O)N4CCCCC4C3=O)cc2)c1` (stereo not drawn), inactive: -11.2%. The figure for `COc1ccc(Nc2c3c(nc4ccc(NC(=O)c5ccc(F)cc5)cc24)CCCC3)cc1OC` is inactive: -34%; for `CC1N=C2c3ccccc3N=C(SCC(=O)NCCc3ccccc3)N2C1=O` (stereo not drawn) it is inactive: -10.7%; for `CN(Cc1ccccc1)C(=O)c1nc(-c2ccc(Cl)cc2)n2c1CCCCC2` it is inactive: 6.71%.

Regarding `O=C(c1cccn1-c1nnc(N2CCCC2)s1)N1CCN(c2ccc(Cl)cc2)CC1`, the activation was inactive: 14.8%. As to `Cn1c(=O)[nH]c2cc(-c3noc(-c4ccc(C#N)cc4)n3)ccc21`, the activation was inactive: 4.01%. For `Cc1cc(C)n(-c2nnc(Nc3ccc(C)c(Cl)c3)c3ccccc23)n1`, the activation is inactive: -3%. In the case of `CCCS(=O)(=O)NCCc1sc2nc(-c3ccc(F)cc3)nn2c1C`, the activation is inactive: -9.71%. In the case of `Cc1ccc2c(c1)C(c1ccccc1)N(C(=O)Cc1ccc(F)cc1)CC(=O)N2` (stereo not drawn) it was inactive: -20.8%; in that of `CN(C)C(=O)c1c(NC(=O)c2ccccc2F)sc2c1CCCC2`, inactive: -1.98%. In the case of `CC(=O)Nc1ccc(S(=O)(=O)NCC2CCC(C(=O)NCCN(CC(C)C)CC(C)C)CC2)cc1` (stereo not drawn) it was inactive: -3.84%; in that of `COc1ccc(Cn2c(C(=O)O)c(CNCCc3cc(OC)ccc3OC)c3ccc(C)cc32)cc1`, active: 106%; in that of `COc1ccc(C2=NC(C)(C)N(CC(=O)Nc3cccc(C)c3)C2=O)cc1`, inactive: -5.9%. In the case of `CC1=C(C(=O)Nc2ccc(Cl)cc2)C(CC(C)C)n2nc(SCc3ccccc3C)nc2N1` (stereo not drawn), the activation was inactive: -0.172%.

With `Nc1nc2ccc([N+](=O)[O-])cc2s1`, the activation was inactive: -24.1%. Regarding `O=C(COc1ccc2ccccc2c1)NC1CC(=O)N(c2cccc(F)c2)C1` (stereo not drawn), the activation was inactive: 0.267%. As to `COc1cc(C2C(=O)N(C3CCCCCC3)CC(=O)N2CCc2ccccc2)ccc1OC(C)C` (stereo not drawn), the activation was inactive: -7.83%.

As for `Cc1ccc(C)c(-n2c(N)c(C#N)c3nc4ccccc4nc32)c1`, the activation was inactive: 7.9%.

Regarding `COc1ccccc1CNS(=O)(=O)c1cnc(N)nc1`, the activation is inactive: -3.8%. In the case of `CCCCCCCC(=O)[O-].CCCCCCCC(=O)[O-].[Zn+2]` it was inactive: 35.3%; in that of `Cc1nc2ccn(Cc3ccco3)c(=O)c2cc1C(=O)NCc1ccccc1`, inactive: -15%; in that of `COc1cccc(CNc2cc(C)nc3nc(-c4ccc(C)cc4)nn23)c1`, inactive: 21.1%. The figure for `O=C(NCC(c1ccco1)S(=O)(=O)c1cccs1)c1ccccc1F` (stereo not drawn) is inactive: -2.9%. The figure for `CCCc1cc(=O)[nH]c2nnc(SCC)n12` is inactive: 30.9%; for `O=c1oc2ccc3ccccc3c2cc1-c1nnc(Nc2ccc(F)cc2)s1` it is inactive: 2.26%.

As to `Cc1ccc(N2CC(C)Cn3c2nc2c3c(=O)n(Cc3cccc(Cl)c3)c(=O)n2C)cc1` (stereo not drawn), the activation is inactive: -0.63%.

Consider `COc1ccc(NC(=O)c2oc3ccc(S(=O)(=O)N4CCOCC4)cc3c2C)cc1`, for which the activation is inactive: 20.7%.

For `COc1ccc(C2c3c(n(C)c4ccccc34)C(=O)N2CC(=O)Nc2cccc(F)c2)cc1` (stereo not drawn), the activation was inactive: -25.9%. The figure for `O=C(O)c1ccc(CNCc2ccccc2Cl)s1` is inactive: 3.74%; for `CCc1ccc(C(=O)N2CCC(c3nc(-c4ccc(S(=O)(=O)N5CCCC5)cc4)no3)CC2)cc1` it is inactive: -2.33%. In the case of `COc1ccc(C(=O)Nc2nnc(SCc3cc(=O)n4cccc(C)c4n3)s2)cc1` it was inactive: -8.32%. The figure for `O=S(=O)(c1ccc(Br)cc1)c1nnn2c1nc(NCc1ccc3c(c1)OCO3)c1sccc12` is inactive: -10.3%; for `Cc1cccc(CNC(=O)c2ccc3oc(=O)n(Cc4ccccc4)c3c2)c1` it is inactive: -6.72%. Turning to `COc1cc(Cl)c(C)cc1NC(=O)Cn1ncc2c1-c1cc(C)ccc1OC2`, the activation was inactive: 8.48%. The figure for `CCCSc1ncc(Cl)c(C(=O)Nc2c(C(=O)Nc3ccc(OC)cc3)oc3ccccc23)n1` is inactive: -9.92%; for `Cc1ccc(CNC(=O)CCCCCn2c(=O)c3sccc3n(CC(=O)Nc3c(C)cc(C)cc3C)c2=O)cc1` it is inactive: 0.328%. Consider `CCCOc1ccc(CNC(=O)CCCn2nc(C)c3sc4ccccc4c3c2=O)cc1`, for which the activation is inactive: -12.9%. In the case of `O=C(Nc1cc(Cl)ccc1Cl)c1cc2nc(-c3ccc4c(c3)OCO4)cc(C(F)(F)F)n2n1` it was inactive: -5.21%; in that of `CC1CCCN(Cc2nc3c(c(=O)n(C)c(=O)n3C)n2Cc2ccc(Cl)cc2)C1` (stereo not drawn), inactive: -1.63%; in that of `Cc1cc(C)cc(NC(=O)CSc2oc(-c3ccco3)nc2S(=O)(=O)c2ccc(Cl)cc2)c1`, inactive: -0.265%. `CSc1ccc(CNC(=O)C2CCN(c3nc4ccccc4nc3C(F)(F)F)CC2)cc1`: the activation is inactive: -17.2%. In the case of `COc1ccc(Cl)cc1NC(=O)C1CCN(S(=O)(=O)c2ccc3c(c2)CC(C)N3C(C)=O)CC1` (stereo not drawn) it was inactive: 18.2%; in that of `Cn1nc(C(=O)NCc2ccccc2Cl)c2c1-c1ccccc1S(=O)(=O)C2`, inactive: -2.75%; in that of `COc1ccc(Nc2cc(C)c3cc(NC(=O)Cc4ccc(Cl)cc4)ccc3n2)cc1`, inactive: 24.5%. With `Cc1ccc(Cl)cc1N1CCN(c2ncnc3c2nc2n3CCCCC2)CC1`, the activation is inactive: -10.2%. The figure for `CCCCNC(=O)C1CCN(c2nc3ccccc3nc2C(F)(F)F)CC1` is inactive: 4.49%. Regarding `COc1ccc(-n2ncc(C(=O)N3CCN(c4cc(C)ccc4C)CC3)c2C2CCN(C(=O)OC(C)(C)C)CC2)cc1`, the activation was inactive: -2.42%. In the case of `COc1ccc(CNCc2c(C(=O)O)c(C)n(Cc3ccccc3C)c2C)c(OC)c1` it was inactive: -21.9%; in that of `CCN(CC)CCNC(=O)c1cn(CCOC)c(=O)c2c1c1ccccc1n2C`, inactive: -11.9%. In the case of `Cc1cc(C)c(S(=O)(=O)N2CCC(N3CCN(Cc4ccccc4)C(=O)C3=O)CC2)c(C)c1`, the activation was inactive: -8.8%. For the molecule `CCN(CC)S(=O)(=O)c1cccc(C(=O)Nc2sc3c(c2C#N)CCC(C)C3)c1` (stereo not drawn), the activation is inactive: 15.5%. As for `COc1ccc2c(c1)c1c(c(=O)n(-c3ccccc3C)c(=O)n1C)n2C`, the activation was inactive: 23.1%. In the case of `CCOC(=O)C1=C(C)NC(C)=C(C(=O)OC)C1c1cccc([N+](=O)[O-])c1` (stereo not drawn) it was inactive: -25.4% and inactive: -27.8%.

Turning to `O=C(CSc1cn(CCNC(=O)c2c(F)cccc2F)c2ccccc12)Nc1ccc(F)cc1`, the activation is inactive: -3.66%. The figure for `Cc1nnc(NC(=O)CSc2nccn2Cc2ccc(Cl)cc2)s1` is inactive: -7.23%; for `COc1ccc(C)cc1NC(=O)c1cc2c(=O)n(Cc3cccnc3)ccc2nc1C` it is inactive: -6.72%. The figure for `Cc1ccc(-c2c(C(=O)N3CCN(c4cc(Cl)ccc4C)CC3)oc(=O)c3ccccc23)cc1` is inactive: 11.5%; for `CCc1ccccc1NC(=O)Cc1ccc(NC(=O)N2CCCCc3ccccc32)cc1` it is inactive: -0.346%; for `Cc1nc2nc(NC(=O)CC(C)C)[nH]n2c(=O)c1Cc1ccccc1` it is inactive: 9.36%. The figure for `O=C(Nc1ccc(F)c(Cl)c1)N1CCC2(CC1)Oc1ccccc1C(=O)N2Cc1ccccc1F` is inactive: -14.4%; for `COc1ccccc1N1CCN(C(CNC(=O)C(=O)NCc2ccc(F)cc2)c2cccnc2)CC1` (stereo not drawn) it is inactive: 7.73%. Regarding `COc1cccc(N2CCN(C(=O)CCCCCn3c(=O)[nH]c4ccccc4c3=O)CC2)c1`, the activation was inactive: -17.8%.

Regarding `CC1CCn2c(nc3cc(C(=O)NCc4ccc(OC(C)C)cc4)ccc32)C1` (stereo not drawn), the activation is inactive: -13.3%. With `CC(C)c1ccc(NC(=O)CSc2nc3ccccc3nc2Cc2ccccc2)cc1`, the activation is inactive: -6.92%.
